Among the data in publication PMC6212790 are binding signal values, retold here.

The other results are listed elsewhere or left out. At the low end of the ranking the order means little.

In this test the target is T1, GST-Rok-C97-191 (UniProt O34857).
T1 sequence: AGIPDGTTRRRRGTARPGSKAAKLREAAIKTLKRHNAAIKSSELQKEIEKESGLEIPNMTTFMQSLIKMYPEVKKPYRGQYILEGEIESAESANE
The test can be described thus: protein binding microarray.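 Also: rank score from −0.5 (least bound) to 0.5 (best bound).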 To be noted: Rok is a gene silencer of Bacillus subtilis; high values mean tight binding; most listed sequences are background and not binding sites; double strand, one strand shown.
Regarding GCCTGACA, the binding signal was -0.176 E-score.

Regarding CCCCCCAG, the binding signal is -0.245 E-score.

Sequence GAAGAAAC registered a binding signal of 0.108 E-score.

As for GAAGGATA, the binding signal was 0.0411 E-score.

GCGGAGCA: the binding signal was -0.296 E-score.

For the sequence CTTCCATC, the binding signal is -0.103 E-score.

In turn, CTATCGGC gave a binding signal of 0.0347 E-score.

Take GTAATCCA: the binding signal is -0.0655 E-score.

On to CCTCGTCC, for which the binding signal was -0.365 E-score.

CTGATCAG yielded a binding signal of 0.0208 E-score.

For the sequence AGCGCCCA, the binding signal was -0.323 E-score.

In the case of GCTATACC, the binding signal is -0.0163 E-score.

As to AGACGCCT, the binding signal is -0.184 E-score.

Sequence ACATATTG registered a binding signal of 0.232 E-score.

Regarding GAGTCAAC, the binding signal was -0.217 E-score.

In the case of GACCCTCA, the binding signal was -0.264 E-score.

Regarding CCGATATA, the binding signal worked out at 0.274 E-score.

For the sequence ACCATGAG, the binding signal was -0.0581 E-score.

With AACCAGCT, the binding signal was -0.195 E-score.

Consider ACGATACG, for which the binding signal worked out at 0.0899 E-score.

TACCGCCA: the binding signal worked out at 0.0197 E-score.

Regarding AGGTTCAG, the binding signal stood at 0.0249 E-score.

As to CGCAACAC, the binding signal is -0.0189 E-score.

Regarding ACGCTCTC, the binding signal was -0.3 E-score.

Take CTGGCCGA: the binding signal worked out at 0.0508 E-score.

As for GCCGCGGA, the binding signal was -0.187 E-score.

As to CGTGCAAA, the binding signal amounted to 0.0567 E-score.

As to GTTATGGA, the binding signal is -0.0343 E-score.

Turning to ACATGGCT, the binding signal is -0.0476 E-score.

GGCTGCCC: the binding signal was -0.232 E-score.

CGTACCTC: the binding signal is -0.179 E-score.

AGATTCCT showed a binding signal of 0.111 E-score.

For ATGGAGAG, the binding signal is -0.115 E-score.

TGAGCAAA: the binding signal worked out at 0.00907 E-score.

GGAAGGCC: the binding signal is -0.309 E-score.

As to CGGGAAGA, the binding signal was -0.123 E-score.

Sequence CTTAATGC had a binding signal of 0.0481 E-score.

In turn, ATTCCTTG registered a binding signal of 0.0225 E-score.

On to ACCGGGCC, for which the binding signal is -0.315 E-score.

For CAGCCTCC, the binding signal is -0.274 E-score.

GAAGATTA came in with a binding signal of 0.122 E-score.

AATATTTC registered a binding signal of 0.274 E-score.

On to ATTTTTTC, for which the binding signal was -0.0201 E-score.

Take GGCACGGA: the binding signal was -0.0988 E-score.

The sequence CACGAATC gave a binding signal of 0.064 E-score.

As for ATGTCACG, the binding signal is -0.112 E-score.

As to CTAATGCA, the binding signal stood at 0.0617 E-score.

Take GCGCGTCC: the binding signal is -0.291 E-score.

GAGTTACA returned a binding signal of 0.0993 E-score.

Turning to GTCTCACA, the binding signal was -0.294 E-score.

For TCCCAAGA, the binding signal is -0.129 E-score.

With CCTAGGCG, the binding signal was -0.291 E-score.

Turning to ACCCCTGC, the binding signal was -0.242 E-score.

Consider GCCTCTTA, for which the binding signal is -0.135 E-score.

Regarding AAGATCGG, the binding signal was -0.0288 E-score.

As to CATTTGCG, the binding signal was -0.0244 E-score.

With AAGACAGT, the binding signal is -0.131 E-score.

As to GTGCGAAC, the binding signal was -0.184 E-score.

Sequence ATACTAGC came in with a binding signal of 0.288 E-score.

Take AGCGACTC: the binding signal came out at 0.0123 E-score.

ACAATGGT displayed a binding signal of 0.0419 E-score.

Sequence TGCAGTAA showed a binding signal of 0.128 E-score.

As to AATCGTGT, the binding signal amounted to 0.175 E-score.

TACGAGAA displayed a binding signal of 0.0502 E-score.

With ACCCGAGA, the binding signal is -0.114 E-score.

Turning to ACACTGAG, the binding signal was -0.271 E-score.

GTGGGGCA: the binding signal was -0.288 E-score.

As to AATGCTGG, the binding signal is -0.177 E-score.

For the sequence ATAGCCCC, the binding signal was -0.135 E-score.

With GTCGTTCA, the binding signal was -0.116 E-score.

As for GCCTCACC, the binding signal is -0.172 E-score.

Sequence GCTGGTAA showed a binding signal of 0.079 E-score.

For AAACATGC, the binding signal was determined as 0.0654 E-score.

For the sequence CCTTAACC, the binding signal was -0.0281 E-score.

In turn, AATGTAGT returned a binding signal of 0.291 E-score.

Consider AGCATCGA, for which the binding signal was -0.0444 E-score.

In the case of AGCTCGTG, the binding signal is -0.241 E-score.

Regarding AGTATACC, the binding signal was 0.0736 E-score.

Take AGCGGCAC: the binding signal is -0.177 E-score.

Turning to CGAGTAGA, the binding signal is 0.088 E-score.

Take GCAGCAGC: the binding signal was -0.113 E-score.

Sequence GAGGTACC yielded a binding signal of 0.0341 E-score.

The sequence ATCCACAT gave a binding signal of 0.133 E-score.

On to ATATCGAG, for which the binding signal turned out to be 0.151 E-score.

For the sequence CCAGTGCG, the binding signal was -0.209 E-score.

AAGGGTAC: the binding signal was -0.0501 E-score.

Sequence ACCTAGTA had a binding signal of 0.233 E-score.

Regarding CCAACGGA, the binding signal was -0.0787 E-score.

Consider GGGGCACA, for which the binding signal is -0.127 E-score.

With CGCAGCGA, the binding signal is -0.0248 E-score.

The sequence ATTCTGGA gave a binding signal of 0.0571 E-score.

On to AAAAACTA, for which the binding signal was found to be 0.426 E-score.

Regarding CTCATGAA, the binding signal was -0.000469 E-score.

On to ACTCATAT, for which the binding signal was 0.101 E-score.

In the case of ATTGGCAG, the binding signal is -0.0782 E-score.

In turn, GTGTCCTA displayed a binding signal of 0.0387 E-score.

Regarding GAGCGTGC, the binding signal is -0.274 E-score.

For AGAGCGTA, the binding signal was determined as 0.0391 E-score.

As for CGTAATTC, the binding signal came out at 0.175 E-score.

Regarding ATGGGCCG, the binding signal is -0.214 E-score.

With AGCCATTC, the binding signal was -0.0428 E-score.

With AGCGACCT, the binding signal was determined as 0.06 E-score.

For GAGTGCAC, the binding signal was -0.109 E-score.

CGATGCCC: the binding signal was -0.156 E-score.

Regarding AACATCTT, the binding signal is 0.0861 E-score.

For CTCGCATC, the binding signal was -0.126 E-score.

As for AAGCCGAC, the binding signal was 0.0531 E-score.

Sequence ACTTAAAT came in with a binding signal of 0.175 E-score.

ATTCAAAA displayed a binding signal of 0.126 E-score.

Consider GATAGGAC, for which the binding signal is -0.0509 E-score.

Turning to TGCTTCAA, the binding signal is -0.233 E-score.

AATAGTGC had a binding signal of 0.111 E-score.

Consider ACATCGCG, for which the binding signal came to 0.139 E-score.

As to GCTTAGAC, the binding signal was -0.113 E-score.

For the sequence ACCCCAAG, the binding signal stood at 0.00587 E-score.

For the sequence GATCGTCC, the binding signal is -0.213 E-score.

In the case of GAGACTAC, the binding signal came out at 0.0702 E-score.

Turning to GTTCGATA, the binding signal was 0.148 E-score.

CGAACATC: the binding signal was -0.0576 E-score.

With AACTGATA, the binding signal was determined as 0.317 E-score.

GTATATGA yielded a binding signal of 0.224 E-score.

CCCTACCG: the binding signal worked out at 0.00127 E-score.

Sequence AGATCAAG displayed a binding signal of 0.0327 E-score.

As to CCTTAACA, the binding signal is -0.086 E-score.

With AAGATCTA, the binding signal is 0.288 E-score.

As to TAACTGAA, the binding signal was found to be 0.17 E-score.

Consider AATGCGTA, for which the binding signal stood at 0.0342 E-score.

On to CTCCAGAC, for which the binding signal is -0.108 E-score.

For the sequence CCTGGAAC, the binding signal is -0.0442 E-score.

For GAAGTATA, the binding signal came out at 0.164 E-score.

AGCTGTTG: the binding signal is 0.0786 E-score.

In the case of CGTATGCC, the binding signal is -0.193 E-score.

Take ACCAAGGA: the binding signal was -0.216 E-score.

Turning to CCGACTCC, the binding signal is -0.339 E-score.

As for GACTACTA, the binding signal was 0.373 E-score.

As to ACCGTATC, the binding signal stood at 0.121 E-score.

With CCGTCTTA, the binding signal was -0.161 E-score.

Sequence AAAGTGTA registered a binding signal of 0.243 E-score.

ACGCTACG gave a binding signal of 0.142 E-score.

In turn, CTACCGGA came in with a binding signal of 0.0979 E-score.

As for ATGGATGG, the binding signal is -7.41e-05 E-score.

In the case of ATATTCTA, the binding signal came out at 0.408 E-score.

Sequence CTATCCTA came in with a binding signal of 0.0657 E-score.

On to CTTTCACA, for which the binding signal is -0.0251 E-score.

As for AGCCAGGA, the binding signal is -0.159 E-score.

Regarding GTGATTAA, the binding signal amounted to 0.0493 E-score.

Take AAAGGTGA: the binding signal came to 0.0402 E-score.

Turning to CATAACGA, the binding signal was determined as 0.133 E-score.

Consider CTATGATC, for which the binding signal is 0.219 E-score.

Turning to GACCGTCA, the binding signal was -0.108 E-score.

AACGGATG: the binding signal worked out at 0.133 E-score.

Turning to ACACTGAT, the binding signal was -0.0431 E-score.

ATGCCCCC: the binding signal was -0.27 E-score.

With ACCTGGAG, the binding signal is -0.164 E-score.

In the case of AGCATAGC, the binding signal was -0.109 E-score.

Regarding CATACTGA, the binding signal is -0.0594 E-score.

Consider CAAACATG, for which the binding signal was found to be 0.0951 E-score.

On to AGTCGGGG, for which the binding signal was -0.16 E-score.

AATTCCCG returned a binding signal of 0.0513 E-score.

In turn, ACCTCAGC registered a binding signal of 0.0237 E-score.

As to AACCAGTC, the binding signal is -0.123 E-score.

As to CTGCTCCA, the binding signal was -0.00585 E-score.

Consider ACGGGACA, for which the binding signal was -0.0769 E-score.

Turning to CAATTGTG, the binding signal came to 0.0188 E-score.

ACAGTCCT: the binding signal is -0.0757 E-score.

Regarding GTGAAAAA, the binding signal was -0.0347 E-score.

On to ACGTTATG, for which the binding signal is -0.0294 E-score.

As to CTCGGTCC, the binding signal is -0.325 E-score.

Consider ACGCCCCT, for which the binding signal was -0.4 E-score.

Turning to GACCAATC, the binding signal is -0.0956 E-score.

Turning to CGGCGCCA, the binding signal is -0.118 E-score.

Turning to GAACTCAA, the binding signal is -0.0625 E-score.
